# Data from PubChem BioAssay AID686979 (National Center for Advancing Translational Sciences (NCATS), 2013).
# The whole screen tested about 420,000 compounds, of which about 50,000 (12%) were called active. This list was built around the results that the source calls inconclusive (neither active nor inactive); the mix of calls is not that of the screen. Calls come from the whole dose curve; as a rule, active = well fitted inhibition curve with a large enough effect; inconclusive = small, poorly fitted or top-dose-only effect; inactive = flat fitted curve, though single readings scatter. No potency is given beside an inconclusive call; the fits are too rough.
# Experiment: qHTS for Inhibitors of human tyrosyl-DNA phosphodiesterase 1 (TDP1): qHTS in cells in presence of CPT; note: nearly all actives have a fitted effect of over 55% in size
# Conditions: chicken DT40 Tdp1-/-;hTDP1 cells + 20 nM CPT, ATP luminescence, 48 h; activity change, negative = growth inhibition: at 46.2 µM (top of the series)
# How it was run: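 Chicken DT40 Tdp1-/- cells complemented with human TDP1, 400 cells/well, exposed to compounds plus 20 nM camptothecin for at least 48 h at 37 C; viability read as ATP content by CellTiter-Glo luminescence.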
# % is set by controls: 0 for no effect and ±100 for the full control effect; potency is the fitted concentration of half-maximal effect; tags give direction and shape of the fitted curve.
SMILES,Potency,"activity change, negative = growth inhibition"
O=C(Nc1ccccc1)c1ccc(-c2ccccc2Cl)o1,active: 20.6 µM,–
CCC1CCCCN1CCCNC(=O)CCC(=O)N1CC(C)Oc2ccccc21 (centres undefined),–,inactive: -9.54%
O=C(COC(=O)c1ccccc1C(=O)c1ccccc1)NCCc1ccc(Cl)cc1Cl,"inconclusive [inhibitor, single point]",–
COc1cccc(N2CC(NS(=O)(=O)c3ccc4ccccc4c3)CC2=O)c1 (centres undefined),–,inactive: -15%
COc1cc(-c2ccc3c(=O)c4ccccc4n(C)c3c2)cc(OC)c1OC,active: 16.4 µM,–
CCN1C(=O)C(Cc2nc3ccccc3c(=O)n2C)c2cc(C)ccc21 (centres undefined),"inconclusive [inhibitor, single point]",–
CN(C)c1cc(Nc2cccc(O)c2)c([N+](=O)[O-])c2nonc12,"inconclusive [inhibitor, partial curve]",–
c1ccc(CN2CCN(C(c3ccccc3)c3nnnn3Cc3ccccc3)CC2)cc1 (centres undefined),"inconclusive [inhibitor, single point]",–
O=C(Nc1cccc2ccccc12)N1CCN(c2ccc(F)cc2)CC1,–,inconclusive: 2.6% [inhibitor]
O=C(/C=C/c1cccs1)N1CCCCC1,–,inactive: -11.4%
CCOc1ccc(C(=O)Nc2ccc3c(c2)OCCO3)cc1Br,"inconclusive [inhibitor, single point]",–
Cc1ccc(/C=c2\sc3n(c2=O)CN(c2ccc(Br)cc2)CN=3)o1,–,inactive: -9.77%
COC(=O)Cn1c(=NC(=O)c2cc(-c3cccs3)nc3ccccc23)sc2cc(S(N)(=O)=O)ccc21,"inconclusive [inhibitor, single point]",–
COC(=O)C1=C(C)N(Cc2ccccc2)C(=S)N[C@H]1c1ccccc1,"inconclusive [inhibitor, single point]",–
O=C(/C=C/c1cccs1)c1cc(Br)ccc1OC(=O)N1CCOCC1,"inconclusive [inhibitor, single point]",–
CC(C)C[C@H]1CNC(=O)C(=O)N1C[C@@H]1CCCN1C[C@H](Cc1ccc(O)cc1)N1C[C@H](Cc2ccccc2)N(CC2CCCCCC2)C(=O)C1=O,"inconclusive [inhibitor, single point]",–
COCCCNCC#CCOc1ccc(OC)cc1,"inconclusive [inhibitor, single point]",–
COc1ccc(CNC(=O)C2CCN(S(=O)(=O)c3ccc4c(c3)N(C(C)=O)CCO4)CC2)cc1,–,inactive: 2.56%
CSc1ccccc1C(=O)C1CCCN(Cc2c(C)n(C)n(-c3ccccc3)c2=O)C1 (centres undefined),"inconclusive [inhibitor, single point]",–
CC(C)n1cc(C(=O)c2ccccc2O)cc(C#N)c1=O,–,inactive: -22.7%
COc1ccccc1-c1nc2cc(NC(=O)c3ccccc3Cl)ccc2o1,"inconclusive [inhibitor, single point]",–
CCC(C(=O)NC1CCCC1)N(Cc1ccccc1Cl)C(=O)c1snc(C(N)=O)c1N (centres undefined),–,inactive: -4.98%
COc1ccccc1NC(=O)CC(c1ccc(OC(C)C)cc1)c1ccccc1OC (centres undefined),active: 16.4 µM,–
Cc1ccc(-c2csc3ncnc(Nc4ccc(C(=O)O)cc4)c23)cc1,"inconclusive [inhibitor, partial curve]",–
COc1cc(NS(=O)(=O)c2ccc(-c3cc(C)no3)cc2)cc(OC)c1,active: 1.84 µM,–

SMILES,Potency,"activity change, negative = growth inhibition"
O=C(CN1CCN(c2cccc(C(F)(F)F)c2)CC1)Nc1cccc(C(F)(F)F)c1,–,inactive: -95.6%
Cc1cc(CN(C)C(=O)c2cc(COc3ccc(C)c(C)c3)on2)n[nH]1,"inconclusive [inhibitor, single point]",–
Cc1nc(NCc2cccnc2)c2c3c(sc2n1)CC(C)CC3 (centres undefined),"inconclusive [inhibitor, single point]",–
NS(=O)(=O)c1cccnc1Nc1cccc(Cl)c1Cl,–,inactive: -12.7%
Cc1cccc[n+]1CC(=O)c1ccc(NC(=O)c2ccccc2)cc1,"inconclusive [inhibitor, single point]",–
Cc1cc(C)n(S(=O)(=O)c2ccc(Cl)cc2)n1,–,inactive: -4.2%
Cc1ccc(OS(=O)(=O)c2cn(C)c(=O)n(C)c2=O)cc1C,–,inactive: 4.05%
Cc1ccc(NC(=O)NC(=O)N(C2CCCCC2)S(=O)(=O)c2ccccc2)cc1,–,inactive: -10.3%
COc1ccc(CCNC(=O)c2coc(=O)c(Br)c2)cc1,active: 0.651 µM,–
COc1ccc(CC(=O)N(Cc2ccccc2)c2ccccc2)cc1S(=O)(=O)N1CCOCC1,active: 16.4 µM,–
Cc1cc(Cl)c(S(=O)(=O)Nc2cccc(O)c2)cc1OCC(N)=O,–,inconclusive: -33.1% [inhibitor]
CC1(C)CC2CC(C)(CN2CC(O)c2ccccc2)C1 (centres undefined),–,inactive: -19.3%
CCOc1ccc(N2C(=O)C(CC(=O)Nc3ccccc3)N(Cc3ccccn3)C2=S)cc1 (centres undefined),"inconclusive [inhibitor, partial curve, poor fit]",–
FC(F)(F)c1cc(-c2cccs2)nc(NCc2ccco2)n1,"inconclusive [inhibitor, single point]",–
O=C(NCc1ccco1)C(=O)NCC1OCCN1S(=O)(=O)c1cc(F)ccc1F (centres undefined),–,inactive: 2.04%
COc1cc(NC(=O)c2cc(C)no2)cc(OC)c1OC,–,inactive: 7.77%
CCc1noc(C)c1C(=O)Nc1nc2c(F)cc(F)cc2s1,"inconclusive [inhibitor, partial curve, poor fit]",–
OC1(c2ccc(Cl)c(Cl)c2)C[n+]2ccccc2N1Cc1ccccc1 (centres undefined),active: 13 µM,–
O=c1cc(-c2ccccc2[N+](=O)[O-])oc2ccccc12,active: 16.4 µM,–
CC(=O)Nc1cc(C(=O)N2CCCC2)ccc1Sc1ccc(C)cc1,"inconclusive [inhibitor, partial curve, poor fit]",–
COc1cccc(C2C=C(c3ccc(Br)s3)Nc3ncnn32)c1OC (centres undefined),"inconclusive [inhibitor, single point]",–
COc1ccc(NCCC(O)c2ccc(Cl)cc2)cc1 (centres undefined),–,inactive: 8.93%
CCn1c(Oc2cccc(Br)c2)nc2c1c(=O)n(C)c(=O)n2C,–,inactive: -0.42%
Cc1ccc(-n2nc3c(N4CCC(C(=O)NCc5cccc(F)c5)CC4)nnc(C)c3c2C)cc1,"inconclusive [inhibitor, single point]",–
